# Experimental data as given in the supplement of paper PMC3334620.
# The full ranking holds about 33,000 sequences; the median of “E-score (-0.5 to 0.5)” is about -0.032, and the highest 2% start at about 0.36. Some of the results follow.
# Target: T1, Sko1 (UniProt Q02100)
# T1 sequence: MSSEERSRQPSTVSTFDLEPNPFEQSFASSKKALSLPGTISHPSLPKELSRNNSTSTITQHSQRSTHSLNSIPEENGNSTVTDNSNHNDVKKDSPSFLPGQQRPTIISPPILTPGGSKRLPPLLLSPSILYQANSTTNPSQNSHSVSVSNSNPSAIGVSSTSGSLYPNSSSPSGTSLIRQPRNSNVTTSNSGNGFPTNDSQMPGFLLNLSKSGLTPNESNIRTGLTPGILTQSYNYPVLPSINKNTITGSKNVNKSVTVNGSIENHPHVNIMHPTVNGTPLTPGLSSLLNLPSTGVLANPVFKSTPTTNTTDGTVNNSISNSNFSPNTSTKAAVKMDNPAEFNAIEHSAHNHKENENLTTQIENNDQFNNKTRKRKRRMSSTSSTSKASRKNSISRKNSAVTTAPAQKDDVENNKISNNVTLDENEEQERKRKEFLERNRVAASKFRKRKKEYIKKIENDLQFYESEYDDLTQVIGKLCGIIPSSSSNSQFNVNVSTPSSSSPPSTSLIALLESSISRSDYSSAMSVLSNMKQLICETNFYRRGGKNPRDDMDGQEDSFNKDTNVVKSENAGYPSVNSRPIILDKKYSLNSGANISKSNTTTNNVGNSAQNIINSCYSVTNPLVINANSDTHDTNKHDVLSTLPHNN
# Experiment: PBM E-score (8-mer binding enrichment) (E-score (-0.5 to 0.5)); higher = stronger / more preferred TF binding; most listed sequences are background and not binding sites
# Settings: protein concentration: 200 nM; construct: GST-full length
# Protocol: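 Universal 'all 10-mer' protein binding microarrays (Agilent AMADID 015681) probed with GST-tagged S. cerevisiae TFs (full-length or DBD) made by in vitro transcription/translation (PURExpress), about 100-200 nM. Bound TF was detected with fluorescent anti-GST. Each ungapped 8-mer (which stands for itself and its reverse complement) is scored by the PBM enrichment score (E-score), a modified Wilcoxon-Mann-Whitney statistic from -0.5 to +0.5, computed with the Universal PBM Analysis Suite. Scale: above 0.35 generally sequence-specific binding.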
row,Sequence,PBM E-score
1,CCGTCAGA,-0.0558
2,ACACAAAA,0.0661
3,CTTTCCCC,-0.0837
4,ACTGAAAC,0.173
5,ATCTGCTA,0.0516
6,AATGCGCG,0.171
7,GTGGTAGA,-0.157
8,CTCGCGCA,0.0932
9,ACACGCCT,0.0543
10,CAAGGCGG,-0.154
11,AGAAGCTA,-0.149
12,ACGTTGAC,0.308
13,AATGGCAC,-0.187
14,GTCCCCAA,-0.021
15,GCAGGTAA,0.0611
16,ATACCCAA,0.109
17,CCGTCGAC,-0.145
18,GCTGATAC,-0.0349
19,CCCCAGGA,-0.377
20,AATGACCG,0.0453
21,ACCGGTGG,-0.404
22,CCACAGAC,-0.079

row,Sequence,PBM E-score
1,GGACTCAC,-0.126
2,GAGGTCAC,0.00312
3,CGACCCCC,-0.292
4,ATGAACCG,-0.0451
5,ACGAAAGC,0.187
6,AATCGTCG,-0.0862
7,CCCCGAAA,-0.174
8,ACCTTAAG,-0.161
9,TAATCACA,0.146
10,AAGCTGCA,0.05
11,AAGCCTCT,-0.198
12,AAGGTGAG,-0.0794
13,CAAATTGA,-0.145
14,TACGAACA,0.273
15,CAACCTCA,0.0206
16,CTACTGCC,-0.226
17,GCCCTTGA,-0.245
18,CGGAAGAA,0.0668
19,CCCGCAAC,-0.136
20,TAGATGAA,0.0876
21,AAAAACTG,-0.0634
22,CGGCAGGA,-0.344

row,Sequence,PBM E-score
1,GAGGCTAA,-0.073
2,ACGCTAGT,-0.0767
3,CGGTGGCC,-0.211
4,GCCACTTA,-0.086
5,ATCTATTG,0.134
6,TACGACTA,0.151
7,GAGGTGCC,-0.231
8,GGGAATGA,0.163
9,AGACGCGG,-0.0753
10,CCCCACTA,-0.065
11,CAGCATAC,0.0626
12,CAGAGCTC,-0.185
13,GCACCAAC,-0.211
14,GCGCGACA,0.0211
15,GAGTTACC,-0.14
16,ACGGTTCA,-0.126
17,AGGCACAA,-0.0774
18,AGAGATCT,-0.147
19,GAACCGTC,-0.153
20,ACGGGCTC,-0.324
21,ACAACGCG,0.0581
22,AGGGAACC,-0.185

row,Sequence,PBM E-score
1,CGATCCTA,-0.24
2,GAGCTCGC,-0.0227
3,GAGTGTAA,-0.15
4,AAGGAAAA,0.0489
5,CCAGTATC,-0.319
6,AAGGCGGC,-0.114
7,AGGGCAAT,-0.231
8,CCAATCAA,-0.143
9,AGGGTAAA,-0.00269
10,ACATAGTA,0.26
11,AACTTAAT,0.202
12,AACATATG,0.0524
13,CCTTGAGA,-0.233
14,CTATGCGA,-0.0756
15,CATGACCA,0.0587
16,ATAATCAT,0.286
17,ACCAGATC,-0.168
18,GGCTAGCA,-0.247
19,CCCGTGCG,-0.0353
20,ATGACGCC,0.449
